Data taken from PubChem BioAssay AID1814 (Broad Institute, 2009).
About 22,000 (7.3%) of roughly 300,000 compounds were called active. Inconclusive means that the source gave no clear call. Such entries were picked first, then a sample of the others. Cut-off read from the data, not from the text of the source: active = activity score below about -60%; inconclusive = mostly about -28% to -61%; inactive = positive scores.

Assay: Activators via SNCA 5'UTR binding, MLPCN (AID 1814)
Conditions: alpha-synuclein 5'UTR reporter, activators screen; hits give low values; tested at 7.5 µM

SMILES | activity score
CC(=O)N1CCN(c2ccc(NC(=O)c3ccc4c(c3)OCCO4)cc2Cl)CC1 | inconclusive: -44.6%
Cc1cccc(NS(=O)(=O)c2ccc(-c3cnc(C4CC4)o3)cc2)c1C | inactive: 99.7%
Cc1ccc(S(=O)(=O)c2nc(S(=O)(=O)CCO)sc2N2CCOCC2)cc1 | active: -95.9%
COc1cc(CC(=O)OCC(=O)c2ccc3c(c2)OCCO3)cc(OC)c1OC | inactive: 100%
COc1ccc(C2CC(c3ccc4ccccc4c3OC(C)=O)=NN2C(=O)/C=C/c2ccccc2)cc1 (centres undefined) | inconclusive: -58%
Cc1cc2cc(CN(Cc3cccs3)Cc3nnnn3CC3CCCO3)c(=O)[nH]c2cc1C (centres undefined) | inconclusive: -21.9%
CC(C)c1ccc(NC(=O)[C@@H]2CCC(=O)N2C2OC(=O)c3ccccc32)cc1 (some centres undefined) | active: -79.3%
Cc1cc(Nc2ccccc2)nn1C(=O)c1ccc(Cl)cc1 | inconclusive: -58.9%
OCC#CCSc1nnc(-c2ccccc2Br)o1 | inconclusive: -47.1%
O=C(N/N=C\c1c(O)ccc2ccccc12)c1ccc(S(=O)(=O)N2CCCCC2)cc1 | inactive: 114%
O=C(CCCN=C1NS(=O)(=O)c2ccccc21)OCC(=O)c1ccc(F)cc1 | inconclusive: -36.6%
CCc1nc(Sc2nnnn2-c2ccccc2)c2c3c(sc2n1)CCCC3 | inconclusive: -48.6%
COc1ccc(-c2csc(N)n2)cc1F | inconclusive: -55.6%
Cc1cc(C)c(C(=O)CN2C(=O)NC3(CCCCC3)C2=O)cc1C | active: -73.2%
CC(C)COc1ccc(/C(=N/O)c2ccccc2)cc1 | inconclusive: -49.9%
CCOC(=O)c1sc(NC(=O)C2CC=CCC2C(=O)O)nc1C (centres undefined) | inconclusive: -26.8%
O=c1c2ccccc2nc(/C=C/c2cccc(Br)c2)n1CCCO | inconclusive: -50.9%
COc1ccc(C(=O)Nn2c(SCC(=O)NCC3CCCO3)nc3ccccc3c2=O)cc1 (centres undefined) | inactive: 87.1%
Cc1ccc(-c2cc(C(=O)NCc3ccco3)c3ccccc3n2)s1 | active: -65.2%
CC(=O)c1ccc(NC(=O)c2onc(C)c2Cl)cc1 | inconclusive: -51.7%

SMILES | activity score
O=C(Nc1nc2ccccc2s1)C1CCCN1S(=O)(=O)c1ccc(Cl)cc1 (centres undefined) | inconclusive: -34.1%
COc1cccc(/C=N/NC(=S)Nc2cccc(C(=O)O)c2)c1O | inactive: 55.4%
CCN(CC)c1nc(-c2ccccc2)ncc1S(=O)(=O)c1ccc(C)cc1 | inconclusive: -43%
CC(C)c1cc(C(=O)N/N=C/c2cccnc2)cs1 | inconclusive: -53.5%
Cc1cnc(NC(=O)c2cc3c(C)nn(-c4ccccc4)c3s2)s1 | active: -66.1%
COc1ccc(C)cc1NC(=O)c1ccc2c(c1)OCO2 | inconclusive: -57%
CC1=NN(c2ccccc2)C(=O)/C1=C/c1cc(C)n(C2CC2)c1C | inconclusive: -53.4%
S=C(NCc1ccco1)Nc1ccc(Cl)c(Cl)c1 | inconclusive: -50.6%
CS(=O)c1nc(-c2ccc(Br)cc2)cc(-c2ccccc2)c1C#N (centres undefined) | inactive: 120%
O=C(CSc1nc(O)cc(=O)n1-c1ccccc1)c1ccc(Br)cc1 | inconclusive: -59.8%
C/C(=N\NC(=O)c1ccccc1)c1ccc(N2CCCCC2)cc1 | active: -86.3%
CC(C)c1nc2sc3ccccc3c(=O)c2c(=O)n1Cc1ccccc1 | inactive: 54.2%
Cc1cc(NC(=O)c2cncc(Br)c2)ccc1NC(=O)c1cc2ccccc2o1 | inactive: 78%
COc1ccc2c(c1)O[C@@H](c1cccc(C(F)(F)F)c1)[C@H](O)C2=O | inactive: 62.4%
Oc1c(N=NC(=S)Nc2ccccc2F)c2ccccc2n1Cc1ccc(Cl)cc1 | inactive: 70.1%
Cc1ccsc1/C=N/NC(=O)c1ccc(-n2cccc2)cc1 | inconclusive: -51.9%
COc1cc(OC)cc(-c2nnc(SCc3cccnc3)o2)c1 | inconclusive: -26%
O=C1C(N2CCOCC2)=C(n2nnc3ccccc32)C(=O)c2ccccc21 | inactive: 44.1%
CC(=O)c1sc(NC(=O)c2cccc3ccccc23)nc1C | inconclusive: -51.7%
COc1ccc(C)cc1NC(=O)c1[nH]c(C)c(C(C)=O)c1C | inconclusive: -49%

SMILES | activity score
O=S(=O)(c1ccc(Br)s1)N1CCC(Cc2ccccc2)CC1 | inconclusive: -46.4%
O=S(=O)(C/C(=C/CO)S(=O)(=O)c1ccccc1)c1ccccc1 | active: -70.8%
CC(=O)Nc1ccc(/C=N/OCC(=O)Nc2ccc(C)cc2)cc1 | inconclusive: -39.9%
CN(CC(=O)Nc1cccc(F)c1)CC(=O)Nc1ccc(Cl)cc1[N+](=O)[O-] | inconclusive: -57.8%
COc1cccc(C(=O)Nc2ccc(NC(C)=O)cc2)c1 | inconclusive: -61.2%
CC(=O)Nc1ccc(NC(=O)CSc2ncc(C(=O)Nc3ccc(F)cc3)c(=O)n2C)cc1 | inconclusive: -57.8%
Cc1ccc(OCC(=O)Nc2ccc3c(c2)nc(CCN2CCN(C)CC2)n3C)cc1 | inactive: 105%
O=C(Nc1ccc(N2CCOCC2)nc1)c1cccs1 | active: -104%
COc1ccccc1-c1ccc(SCc2ccc(F)cc2)nn1 | inconclusive: -60.2%
Cc1ccc(-n2c(C)cc(C(=O)CN3CCCCC3)c2C)cc1 | inconclusive: -55.4%
NC(=O)c1oc2ccccc2c1NC(=O)c1ccc([N+](=O)[O-])o1 | inactive: 100%
O=C(c1cccs1)c1no[n+]([O-])c1C(=O)c1cccs1 | inactive: 63.1%
C/C(=N/OC(=O)c1ccc(C)cc1)C(=O)c1ccc(Br)cc1 | inconclusive: -50.8%
O=C1c2ccccc2C(=O)C1(CO)c1ccccc1 | inconclusive: -63.4%
O=C(Nc1ccc2ccccc2n1)Nc1ccccc1F | inconclusive: -55.9%
O=C(N/N=C/C=C/c1ccccc1)c1ccccc1Br | inconclusive: -49.9%
CCOc1ccc(NC(=O)Nc2cccnc2)cc1 | active: -141%
Cc1c(C(=O)C(=O)N2c3ccc(F)cc3CCC2C)c2ccccc2n1C (centres undefined) | inactive: 61.7%
C/C(=N\NC(=O)c1cccc(O)c1)c1ccc(NC(=O)Cc2ccccc2)cc1 | active: -85%
